Counter-ions that a name gives are not always drawn. Whole data set: some 1,900 compounds, median “cell viability of compound + 1 nM pemigatinib relative to pemigatinib-only (DMSO) wells” near 0.95, cut for the lowest 2% near 0.22. The list shows a part of the results.

In the supplement of paper PMC9588766 one finds cell viability data, which are given here for 37 compounds.

The experiment concerns PDC-DUC18828. Kind of experiment: cell viability of compound + 1 nM pemigatinib relative to pemigatinib-only (DMSO) wells (fraction); PDC-DUC18828 is a patient-derived cholangiocarcinoma cell line; higher = less growth inhibition. Conditions: first compound 1 µM; pemigatinib concentration 1 nM; 72 h. The protocol:
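Selleck Bioactive library screen in the patient-derived FGFR2 fusion-positive ICC cell line PDC-DUC18828 (500 cells/well). Each compound was tested at 1 uM with 1 nM pemigatinib, in triplicate, for 72 h. Viability was read by CellTiter-Glo and normalised to plate DMSO controls. Value is the paper's averaged normalised viability.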
On to `COc1c(C)c(C(=O)c2ccc(N)c(C(=O)O)c2)n2ccccc12` + CCN1C(=O)N(c2c(F)c(OC)cc(OC)c2F)Cc2cnc3[nH]c(CN4CCOCC4)cc3c21 [pemigatinib], for which the cell viability amounted to 0.968. Regarding `COc1nccc(-c2c(-c3ccc(F)cc3)ncn2C2CCC(O)CC2)n1` (configuration not stated) + CCN1C(=O)N(c2c(F)c(OC)cc(OC)c2F)Cc2cnc3[nH]c(CN4CCOCC4)cc3c21 [pemigatinib], the cell viability stood at 0.917.

Consider `CN[C@@H](C)C(=O)N[C@H](C(=O)N1CCC[C@H]1c1nc(C(=O)c2ccc(F)cc2)cs1)C1CCCCC1` + CCN1C(=O)N(c2c(F)c(OC)cc(OC)c2F)Cc2cnc3[nH]c(CN4CCOCC4)cc3c21 [pemigatinib], for which the cell viability came out at 0.943.

As to `Cc1c(C(=O)Nc2ccc(Oc3ccnc4[nH]cc(-c5ccccc5)c34)c(F)c2)c(=O)n(-c2ccc(F)cc2)n1C` + CCN1C(=O)N(c2c(F)c(OC)cc(OC)c2F)Cc2cnc3[nH]c(CN4CCOCC4)cc3c21 [pemigatinib], the cell viability turned out to be 0.842. In the case of `CC(C)C[C@H](NP(=O)(O)O[C@@H]1O[C@@H](C)[C@H](O)[C@@H](O)[C@H]1O)C(=O)N[C@@H](Cc1c[nH]c2ccccc12)C(=O)O` [Phosphoramidon Disodium Salt] + CCN1C(=O)N(c2c(F)c(OC)cc(OC)c2F)Cc2cnc3[nH]c(CN4CCOCC4)cc3c21 [pemigatinib] it was 0.984.

Consider `COc1ccc(-c2ccc3c(N4CCOC[C@@H]4C)nc(N4CCOC[C@@H]4C)nc3n2)cc1CO` + CCN1C(=O)N(c2c(F)c(OC)cc(OC)c2F)Cc2cnc3[nH]c(CN4CCOCC4)cc3c21 [pemigatinib], for which the cell viability was 0.238. On to `COc1ccc2c(c1)CCC1C2CCC2(C)C(NCCCCCCN3C(=O)C=CC3=O)CCC12` (configuration not stated) + CCN1C(=O)N(c2c(F)c(OC)cc(OC)c2F)Cc2cnc3[nH]c(CN4CCOCC4)cc3c21 [pemigatinib], for which the cell viability was 0.805.

As to `Nc1c(CC(=O)O)cccc1C(=O)c1ccccc1` [Amfenac Sodium Monohydrate] + CCN1C(=O)N(c2c(F)c(OC)cc(OC)c2F)Cc2cnc3[nH]c(CN4CCOCC4)cc3c21 [pemigatinib], the cell viability came to 0.985.

For the compound `CC(C)(C)C(=O)Nc1ccc2c(c1)C(=O)C(=O)c1ccccc1-2` + CCN1C(=O)N(c2c(F)c(OC)cc(OC)c2F)Cc2cnc3[nH]c(CN4CCOCC4)cc3c21 [pemigatinib], the cell viability was 1.04. In the case of `COc1ccc([C@@H]2CC(=O)c3c(O)cc(O)cc3O2)cc1O` [Hesperetin] + CCN1C(=O)N(c2c(F)c(OC)cc(OC)c2F)Cc2cnc3[nH]c(CN4CCOCC4)cc3c21 [pemigatinib] it was 1.06. Take `CCCc1cc(C)[nH]c(=O)c1CNC(=O)c1cc(-c2ccc(N3CCN(C(C)C)CC3)nc2)cc2c1cnn2C(C)C` + CCN1C(=O)N(c2c(F)c(OC)cc(OC)c2F)Cc2cnc3[nH]c(CN4CCOCC4)cc3c21 [pemigatinib]: the cell viability was 0.976. Turning to `CC(=O)Oc1ccccc1C(=O)Nc1ncc([N+](=O)[O-])s1` [Nitazoxanide] + CCN1C(=O)N(c2c(F)c(OC)cc(OC)c2F)Cc2cnc3[nH]c(CN4CCOCC4)cc3c21 [pemigatinib], the cell viability amounted to 1.02. Regarding `NC(=O)c1ccc(N(C(N)=O)c2c(F)cccc2F)nc1-c1ccc(F)cc1F` + CCN1C(=O)N(c2c(F)c(OC)cc(OC)c2F)Cc2cnc3[nH]c(CN4CCOCC4)cc3c21 [pemigatinib], the cell viability turned out to be 0.899. The same measure for `O=C(O)CCc1nc(-c2ccccc2)c(-c2ccccc2)o1` [Oxaprozin] + CCN1C(=O)N(c2c(F)c(OC)cc(OC)c2F)Cc2cnc3[nH]c(CN4CCOCC4)cc3c21 [pemigatinib]: 1.02. For `O=C(O)CCCc1c[nH]c2ccccc12` [3-Indolebutyric acid (IBA)] + CCN1C(=O)N(c2c(F)c(OC)cc(OC)c2F)Cc2cnc3[nH]c(CN4CCOCC4)cc3c21 [pemigatinib], the cell viability turned out to be 0.948.

On to `O=C(c1cc(Cc2n[nH]c(=O)c3ccccc23)ccc1F)N1CCN(C(=O)C2CC2)CC1` + CCN1C(=O)N(c2c(F)c(OC)cc(OC)c2F)Cc2cnc3[nH]c(CN4CCOCC4)cc3c21 [pemigatinib], for which the cell viability was determined as 1.03. With `O=C1c2ccccc2C(=O)C1c1ccccc1` [Phenindione] + CCN1C(=O)N(c2c(F)c(OC)cc(OC)c2F)Cc2cnc3[nH]c(CN4CCOCC4)cc3c21 [pemigatinib], the cell viability is 1.03. Consider `c1ccc(CC2=NCCN2)cc1` [Tolazoline HCl] + CCN1C(=O)N(c2c(F)c(OC)cc(OC)c2F)Cc2cnc3[nH]c(CN4CCOCC4)cc3c21 [pemigatinib], for which the cell viability worked out at 0.978. Turning to `CC(C)(Oc1ccc(CCNC(=O)c2ccc(Cl)cc2)cc1)C(=O)O` [Bezafibrate] + CCN1C(=O)N(c2c(F)c(OC)cc(OC)c2F)Cc2cnc3[nH]c(CN4CCOCC4)cc3c21 [pemigatinib], the cell viability amounted to 0.956. In the case of `CC[C@H]1OC(=O)[C@H](C)[C@@H](O[C@H]2C[C@@](C)(OC)[C@@H](O)[C@H](C)O2)[C@H](C)[C@@H](O[C@@H]2O[C@H](C)C[C@H](N(C)C)[C@H]2O)[C@](C)(O)C[C@@H](C)C(=O)[C@H](C)[C@@H](O)[C@]1(C)O` [Erythromycin] + CCN1C(=O)N(c2c(F)c(OC)cc(OC)c2F)Cc2cnc3[nH]c(CN4CCOCC4)cc3c21 [pemigatinib] it was 1.09; in that of `CO[C@H]1/C=C/O[C@@]2(C)Oc3c(C)c(O)c4c(O)c(c(/C=N/N5CCN(C)CC5)c(O)c4c3C2=O)NC(=O)/C(C)=C\C=C\[C@H](C)[C@H](O)[C@@H](C)[C@@H](O)[C@@H](C)[C@H](OC(C)=O)[C@@H]1C` [Rifampin] + CCN1C(=O)N(c2c(F)c(OC)cc(OC)c2F)Cc2cnc3[nH]c(CN4CCOCC4)cc3c21 [pemigatinib], 1.04; in that of `Cc1c(Cl)cccc1Nc1ccccc1C(=O)O` [Tolfenamic Acid] + CCN1C(=O)N(c2c(F)c(OC)cc(OC)c2F)Cc2cnc3[nH]c(CN4CCOCC4)cc3c21 [pemigatinib], 0.992.

With `CCCSc1ccc2[nH]c(NC(=O)OC)nc2c1` [Albendazole] + CCN1C(=O)N(c2c(F)c(OC)cc(OC)c2F)Cc2cnc3[nH]c(CN4CCOCC4)cc3c21 [pemigatinib], the cell viability worked out at 0.543. For the compound `CCc1ccc(CCOc2ccc(CC3SC(=O)NC3=O)cc2)nc1` (configuration not stated) [Pioglitazone] + CCN1C(=O)N(c2c(F)c(OC)cc(OC)c2F)Cc2cnc3[nH]c(CN4CCOCC4)cc3c21 [pemigatinib], the cell viability was found to be 1.05. As for `CCc1ccc(CCOc2ccc(CC3SC(=O)NC3=O)cc2)nc1` (configuration not stated) [Pioglitazone HCl] + CCN1C(=O)N(c2c(F)c(OC)cc(OC)c2F)Cc2cnc3[nH]c(CN4CCOCC4)cc3c21 [pemigatinib], the cell viability was 1.03. In the case of `Cc1ccc(N(CC2=NCCN2)c2cccc(O)c2)cc1` [Phentolamine Mesylate] + CCN1C(=O)N(c2c(F)c(OC)cc(OC)c2F)Cc2cnc3[nH]c(CN4CCOCC4)cc3c21 [pemigatinib] it was 1.02. As for `CC(C)Nc1cc(-c2c[nH]c(C(=O)N[C@H](CO)c3cccc(Cl)c3)c2)c(Cl)cn1` + CCN1C(=O)N(c2c(F)c(OC)cc(OC)c2F)Cc2cnc3[nH]c(CN4CCOCC4)cc3c21 [pemigatinib], the cell viability turned out to be 0.726. As to `CNC[C@@H](O)c1ccc(O)c(O)c1` [L-Adrenaline] + CCN1C(=O)N(c2c(F)c(OC)cc(OC)c2F)Cc2cnc3[nH]c(CN4CCOCC4)cc3c21 [pemigatinib], the cell viability is 0.943. Regarding `CN(C)[C@@H]1C(O)=C(C(N)=O)C(=O)[C@@]2(O)C(O)=C3C(=O)c4c(O)cccc4[C@@](C)(O)[C@H]3C[C@@H]12` [Tetracycline HCl] + CCN1C(=O)N(c2c(F)c(OC)cc(OC)c2F)Cc2cnc3[nH]c(CN4CCOCC4)cc3c21 [pemigatinib], the cell viability is 0.957. For the compound `O=C(Nc1cc(C(F)(F)F)cc(C(F)(F)F)c1)c1cc(Cl)ccc1O` + CCN1C(=O)N(c2c(F)c(OC)cc(OC)c2F)Cc2cnc3[nH]c(CN4CCOCC4)cc3c21 [pemigatinib], the cell viability is 0.18. Turning to `C[C@H](N[C@@H](CCc1ccccc1)C(=O)O)C(=O)N1CCC[C@H]1C(=O)O` [Enalaprilat Dihydrate] + CCN1C(=O)N(c2c(F)c(OC)cc(OC)c2F)Cc2cnc3[nH]c(CN4CCOCC4)cc3c21 [pemigatinib], the cell viability came to 1. In the case of `NC(=O)N1CCC(CC(=O)N2CCC([C@H]3c4ncc(Br)cc4CCc4cc(Cl)cc(Br)c43)CC2)CC1` [Lonafarnib] + CCN1C(=O)N(c2c(F)c(OC)cc(OC)c2F)Cc2cnc3[nH]c(CN4CCOCC4)cc3c21 [pemigatinib], the cell viability came out at 0.846.

With `COCCCC/C(=N\OCCN)c1ccc(C(F)(F)F)cc1` [Fluvoxamine maleate] + CCN1C(=O)N(c2c(F)c(OC)cc(OC)c2F)Cc2cnc3[nH]c(CN4CCOCC4)cc3c21 [pemigatinib], the cell viability stood at 0.953. For the compound `COC(=O)[C@H](c1ccccc1Cl)N1CCc2sccc2C1` [Clopidogrel] + CCN1C(=O)N(c2c(F)c(OC)cc(OC)c2F)Cc2cnc3[nH]c(CN4CCOCC4)cc3c21 [pemigatinib], the cell viability turned out to be 0.999. The same measure for `O=C(NOCC1CC1)c1ccc(F)c(F)c1Nc1ccc(I)cc1Cl` + CCN1C(=O)N(c2c(F)c(OC)cc(OC)c2F)Cc2cnc3[nH]c(CN4CCOCC4)cc3c21 [pemigatinib]: 0.863; for `Nc1nc(F)nc2c1ncn2[C@@H]1O[C@H](COP(=O)(O)O)[C@@H](O)[C@@H]1O` [Fludarabine Phosphate] + CCN1C(=O)N(c2c(F)c(OC)cc(OC)c2F)Cc2cnc3[nH]c(CN4CCOCC4)cc3c21 [pemigatinib]: 0.985; for `CCOC(=O)N1CCC(=C2c3ccc(Cl)cc3CCc3cccnc32)CC1` [Loratadine] + CCN1C(=O)N(c2c(F)c(OC)cc(OC)c2F)Cc2cnc3[nH]c(CN4CCOCC4)cc3c21 [pemigatinib]: 0.996.
